Measured values published in PubChem BioAssay (NCATS).
Several values for one entry are separate records, joined by “and”; a condition that tells them apart may be missing. Equal values may be shown once. This list was built around the results that the source calls inconclusive (neither active nor inactive); the mix of calls is not that of the screen. A potency beside an inconclusive call is a rough fit, not a confirmed value. Activity calls are given as the source filed them. Calls come from the whole dose curve; as a rule, active = well fitted curve in the direction sought with a large enough effect; inconclusive = small, poorly fitted or top-dose-only effect, or another doubt; inactive = no such curve, though single readings can be large; an effect the other way counts as inactive or inconclusive.

Tests used:
[1] = qHTS of pediatric cancer cell lines to identify multiple opportunities for drug repurposing: Primary screen for BT-37 cells (AID 1347094); details: BT-37 viability, CellTiter-Glo luminescence, 48 h; series mostly up to 57.3 µM
Method in brief: (§1)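 Cells plated at 500-1,000/well in growth medium, compounds added after 5 h. MIPE tested at 11 points (from 0.78 nM), NPC at 8 points (from 0.59 nM). CellTiter-Glo luminescence after 48 h; concentration-response curves from primary screen.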

[2] = qHTS of pediatric cancer cell lines to identify multiple opportunities for drug repurposing: Primary screen for NB-EBc1 cells (AID 1347095); details: NB-EBc1 neuroblastoma viability, CellTiter-Glo luminescence, 48 h; series mostly up to 46 µM
Method in brief: as §1

[3] = qHTS of pediatric cancer cell lines to identify multiple opportunities for drug repurposing: Primary screen for Saos-2 cells (AID 1347097); details: Saos-2 viability, CellTiter-Glo ATP luminescence, 48 h; activity change, negative = cytotoxic: at 46 µM (top of the series) unless noted; note: nearly all actives have a fitted effect of over 40% in size
Method in brief: as §1

[4] = qHTS of pediatric cancer cell lines to identify multiple opportunities for drug repurposing: Primary screen for LAN-5 cells (AID 1347100); details: LAN-5 neuroblastoma viability, CellTiter-Glo luminescence, 48 h; activity change, negative = cytotoxic: at 46 µM (top of the series) unless noted
Method in brief: (§2)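 Viability after 48 h compound treatment at 37C, 500-1,000 cells/well, read as ATP luminescence with CellTiter-Glo. Primary screens used 11-point (MIPE, 0.78 nM-46 µM) or 8-point (NPC, 0.59 nM-46 µM) final concentrations; follow-up screens used 11-point dilutions.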

[5] = qHTS of pediatric cancer cell lines to identify multiple opportunities for drug repurposing: Primary screen for BT-12 cells (AID 1347101); details: BT-12 viability, CellTiter-Glo luminescence, 48 h; series mostly up to 57.3 µM; note: nearly all actives have a fitted effect of over 25% in size
Method in brief: (§3)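 Cells (500-1,000/well) rested 5 h, then received compounds for 48 h; metabolically active cells were measured by CellTiter-Glo luminescence. Final concentrations spanned up to 46 µM (MIPE, 11-point) or 0.59 nM-46 µM (NPC, 8-point) in primary screens, 11-point in follow-ups.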

[6] = qHTS of pediatric cancer cell lines to identify multiple opportunities for drug repurposing: Primary screen for U-2 OS cells (AID 1347096); details: U-2 OS viability, CellTiter-Glo luminescence, 48 h; series mostly up to 46 µM; note: nearly all actives have a fitted effect of over 50% in size
Method in brief: as §2

[7] = qHTS of pediatric cancer cell lines to identify multiple opportunities for drug repurposing: Primary screen for SK-N-SH cells (AID 1347098); details: SK-N-SH viability, CellTiter-Glo luminescence, 48 h; activity change, negative = cytotoxic: at 57 µM (top of the series) unless noted; note: nearly all actives have a fitted effect of over 65% in size
Method in brief: as §3

[8] = qHTS of pediatric cancer cell lines to identify multiple opportunities for drug repurposing: Primary screen for NB1643 cells (AID 1347099); details: NB1643 neuroblastoma viability, CellTiter-Glo luminescence, 48 h; series mostly up to 46 µM; note: nearly all actives have a fitted effect of over 50% in size
Method in brief: as §1

[9] = qHTS of pediatric cancer cell lines to identify multiple opportunities for drug repurposing: Primary screen for Rh18 cells (AID 1347102); details: Rh18 rhabdomyosarcoma viability, CellTiter-Glo luminescence, 48 h; series mostly up to 46 µM; note: nearly all actives have a fitted effect of over 65% in size
Method in brief: as §2
Potency is the fitted concentration of half-maximal effect; tags give direction and shape of the fitted curve.

Compound | Potency [1] | Potency [2] | Potency [3] | Potency [4] | Potency [5] | Potency [6] | Potency [7] | Potency [8] | Potency [9]
C[C@@H]1CC[C@H]2[C@@H](C)C(=O)O[C@@H]3O[C@@]4(C)CC[C@H]1[C@]32OO4 | inconclusive: 3.85 µM [cytotoxic, partial curve] | inconclusive: 2.35 µM [cytotoxic, partial curve] | inactive | inactive | inconclusive: 3.43 µM [cytotoxic, partial curve] | – | – | – | –
c1ccc2c(c1)Nc1ccccc1S2 | inactive | inactive | active: 48.6 µM and inconclusive: 29.9 µM [cytotoxic, single point] | – | inconclusive: 28.2 µM [cytotoxic, partial curve, poor fit] | inactive | inconclusive: 8.86 µM [cytotoxic, partial curve, poor fit] and inconclusive: 1 nM [cytotoxic] | inactive | –
C[C@]12Cc3cn[nH]c3C[C@@H]1CC[C@@H]1[C@H]2CC[C@@]2(C)[C@H]1CC[C@]2(C)O | inconclusive: 21.7 µM [cytotoxic, partial curve, poor fit] | inconclusive: 26.4 µM [cytotoxic, single point] | – | – | – | – | – | – | –
COc1ccc2c(C(=O)c3ccc(Cl)cc3)c(C)n(CC(=O)O)c2c1 | inactive | inconclusive: 29.9 µM [cytotoxic, single point] | – | inactive | – | – | – | – | –
C=CCON=C(C[C@H]1O[C@@H]2O[C@]3(C)CC[C@@H]4[C@H](C)CC[C@@H]([C@H]1C)[C@@]24OO3)[C@H]1O[C@@H]2O[C@]3(C)CC[C@H]4[C@H](C)CC[C@@H]([C@@H]1C)[C@@]24OO3 | active: 0.432 µM | active: 0.372 µM | inactive | – | – | – | – | – | inconclusive: 0.662 µM [cytotoxic, full curve]
C[C@]12Cc3cn[nH]c3C[C@@H]1CC[C@@H]1[C@@H]2CC[C@@]2(C)[C@H]1CC[C@]2(C)O | inactive | inconclusive: 29.9 µM [cytotoxic, single point] | – | inconclusive: 33.5 µM [cytotoxic, single point] | – | inconclusive: 21.1 µM [cytotoxic, partial curve, poor fit] | inconclusive: 24.4 µM [cytotoxic, single point] | inconclusive: 29.9 µM [cytotoxic, single point] | –
CCC(=O)OC1CCC2C3CCC4=CC(=O)CC[C@@]4(C)C3CC[C@]12C (stereo partly drawn) | inactive | – | – | – | – | – | – | – | –
O=c1cccc2n1CC1CNC[C@H]2C1 | inconclusive: 3.06 µM [cytotoxic, full curve] | inconclusive: 5.26 µM [cytotoxic, full curve] | inconclusive: 3.72 µM [cytotoxic, full curve] | – | inconclusive: 3.85 µM [cytotoxic, full curve] | inconclusive: 14.8 µM [cytotoxic, partial curve, poor fit] | active: 24.1 µM | active: 5.9 µM | active: 3.32 µM
CCCCCCCCCCCCCCCC[N+](C)(C)C | active: 15.5 µM | inconclusive: 23.7 µM [cytotoxic, partial curve, poor fit] | inconclusive: 29.9 µM [cytotoxic, single point] | active: 23.7 µM | active: 7.77 µM | inconclusive: 26.6 µM [cytotoxic, single point] | – | inconclusive: 21.1 µM [cytotoxic, single point] | active: 5.31 µM
COc1ccc2c3c1O[C@H]1[C@@H](O)C=C[C@H]4[C@@H](C2)N(C)CC[C@@]341 | inconclusive: 87.8 µM [cytotoxic, single point] | inconclusive: 42.4 µM [cytotoxic, single point] | – | – | inconclusive: 44 µM [cytotoxic, single point] | inconclusive: 30 µM [cytotoxic, single point] | – | – | inconclusive: 23.8 µM [cytotoxic, single point]
COc1cc(CC(C)N)c(OC)cc1Br (stereo not drawn) | inconclusive: 65.7 µM [cytotoxic, single point] | inconclusive: 35.7 µM [cytotoxic, partial curve, poor fit] | – | inconclusive: 12.7 µM [cytotoxic, full curve] | – | – | inconclusive: 6.52 µM [cytotoxic, full curve] | – | –
